In article PMC4336329 (PLoS ONE, 2015):
Screen size: about 310,000 compounds; about 2,200 (0.71%) showed an effect of 50% or more. Effects have a minus sign here. The list shows a part of the results.

molecular target: human ether-à-go-go-related gene (hERG) potassium channel (human, UniProt Q12809); test: primary screen, population patch clamp on CHO cells stably expressing hERG
Sequence (Q12809 whole entry, looked up): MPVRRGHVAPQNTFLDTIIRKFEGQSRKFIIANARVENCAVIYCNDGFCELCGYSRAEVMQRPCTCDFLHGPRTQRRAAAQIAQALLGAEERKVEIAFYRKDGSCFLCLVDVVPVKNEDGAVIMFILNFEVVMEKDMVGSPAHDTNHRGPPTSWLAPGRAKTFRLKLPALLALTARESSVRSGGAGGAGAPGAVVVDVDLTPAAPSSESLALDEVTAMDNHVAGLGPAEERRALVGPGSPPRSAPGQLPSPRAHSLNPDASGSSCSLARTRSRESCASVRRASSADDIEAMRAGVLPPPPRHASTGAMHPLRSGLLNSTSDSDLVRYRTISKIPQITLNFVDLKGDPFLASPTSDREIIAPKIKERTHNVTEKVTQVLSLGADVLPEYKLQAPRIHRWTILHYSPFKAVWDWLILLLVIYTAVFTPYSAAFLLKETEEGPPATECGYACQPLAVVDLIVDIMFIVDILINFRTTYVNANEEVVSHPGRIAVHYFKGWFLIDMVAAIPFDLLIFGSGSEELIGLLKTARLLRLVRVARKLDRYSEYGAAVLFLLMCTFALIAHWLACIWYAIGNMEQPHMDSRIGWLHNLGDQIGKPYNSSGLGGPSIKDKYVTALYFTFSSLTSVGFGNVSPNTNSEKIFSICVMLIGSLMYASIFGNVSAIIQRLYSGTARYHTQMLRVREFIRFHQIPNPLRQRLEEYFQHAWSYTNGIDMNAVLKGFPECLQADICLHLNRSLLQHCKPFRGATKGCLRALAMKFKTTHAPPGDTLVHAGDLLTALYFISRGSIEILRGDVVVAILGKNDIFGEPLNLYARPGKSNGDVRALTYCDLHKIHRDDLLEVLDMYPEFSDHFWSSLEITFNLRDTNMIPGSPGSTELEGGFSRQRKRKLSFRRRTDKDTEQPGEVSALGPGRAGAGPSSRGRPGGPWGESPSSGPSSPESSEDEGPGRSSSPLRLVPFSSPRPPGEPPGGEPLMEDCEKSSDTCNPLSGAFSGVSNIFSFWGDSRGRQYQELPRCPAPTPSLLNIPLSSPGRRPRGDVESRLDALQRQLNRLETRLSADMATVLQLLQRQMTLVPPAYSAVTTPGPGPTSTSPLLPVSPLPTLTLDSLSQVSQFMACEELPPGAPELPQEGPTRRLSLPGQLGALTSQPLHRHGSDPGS

SMILES | hERG current change (%, negative = inhibition) at 1uM
COc1ccc(-n2c(=O)cc(N3CCCCCC3)[nH]c2=O)cc1 | 5.21%
CCCc1ccc(S(=O)(=O)N/N=C(/C)c2ccc3c(c2)OCO3)cc1 | 18.1%
COc1cc(/C=N/n2cnn(Cc3ccccc3Cl)c2=S)cc(OC)c1OC | 9.18%
O=C(Nc1cc(S(=O)(=O)N2CCOCC2)ccc1OCC(F)(F)F)C1=COCCO1 | -10.3%
COc1ccc(NC2CCCN(C(=O)CCc3ccncc3)C2)cc1OC (stereo not shown) | 16.1%
CCOC(=O)C1=NNC2(c3ccccc3)C(=O)N(c3cccc(Br)c3)C(=O)C12 (stereo not shown) | 5.22%
CCCCCCSc1ccc([C@@H]2[C@@H]3C(=O)N(CC)C(=O)[C@@H]3[C@]3(C(=O)OC)CCCCN23)cc1OC.O=C(O)C(F)(F)F | 22.3%
Cc1ccc(-n2c(C)nnc2SCC(=O)N2CCc3ccccc3C2)cc1C | 3.66%
COCCNc1c2c(nc3c(-c4ccccc4)c(C)nn13)CCC2 | 8.57%
O=C(Nc1ccccc1C(=O)Nc1ccccn1)c1cc(F)c(F)cc1Cl | 6.82%
O=c1c2ccccc2n2nnnc2n1-c1ccccc1 | 6.58%
CN(C)c1ccc(C(=O)OCC(=O)N2CCCC2)cc1 | 18.6%
NS(=O)(=O)c1cccc(NC(=O)c2ccc3nc[nH]c3c2)c1 | 12.9%
CN(CC(=O)Nc1ccc(C(N)=O)cc1)CC(=O)Nc1ccccc1Br | 9.3%
Cc1cccc(Oc2ncnc(N)c2[N+](=O)[O-])c1C | 13.3%
CC(C)(C)[C@]1(O)CCN2C[C@H]3c4ccccc4CCc4cccc(c43)[C@@H]2C1.Cl | -46.7%
O=C(NCc1ccco1)c1ccc([N+](=O)[O-])cc1Cl | 1.33%
CN(C)c1ccc(CNC2C3CC4CC(C3)CC2C4)cc1.Cl (stereo not shown) | -0.676%
COc1ccccc1N1CCN(S(=O)(=O)CCNC(=O)c2ccc(OC(C)C)cc2)CC1 | 18.9%
O=C(N1CCCCC1)N1CCN(c2ccc(Cl)cc2)CC1 | 7.09%
Cc1ccc(OC(C)C(=O)Nc2ccncc2)cc1 (stereo not shown) | 8.34%
Cc1ccc(S(=O)(=O)Nc2ccc(C(=O)NCCCN3CCOCC3)cc2)cc1[N+](=O)[O-] | 11.7%

SMILES | hERG current change (%, negative = inhibition) at 1uM
COCCNC(=O)c1sc2ncn(CC(=O)N3CCCCC3)c(=O)c2c1C | 8.52%
COCCN(C(=O)CNC(=O)c1ccco1)C(C(=O)NC1CCCC1)c1ccc(OC)cc1 (stereo not shown) | 1.59%
O=C(Nc1cc(-c2ccccc2)[nH]n1)c1ccccc1F | 11.2%
Nc1cc2c(cc1C(=O)c1cccc(Br)c1)OCCO2 | 5.57%
CCOc1ccc(N2C(=O)CSC23CCCCC3)cc1 | 3.25%
CCC(C)(C)C1CCc2[nH]nc(C(=O)NCCN3CCOCC3)c2C1 (stereo not shown) | 15.9%
CCCCc1nc2ccccc2[nH]1 | 9.11%
O=C(NNc1ccccc1[N+](=O)[O-])Nc1ccc(F)cc1F | 15.3%
CCCNC(=O)N1CCN(C(c2ccccc2)c2ccccc2)CC1 | 15.3%
COC(=O)c1sccc1NC(=O)CN1CCN(c2ccc(F)cc2)CC1 | 8.91%
CCC1Sc2ccc(S(=O)(=O)CCC(=O)Nc3cc(C)ccn3)cc2NC1=O (stereo not shown) | 6.4%
COc1ccc(CN2CCc3ccc(NC(=O)CCc4ccccc4OC)cc3C2)c(O)c1 | 12.2%
O=C(Nc1ccccc1)c1nc[nH]c1C(=O)NCc1ccccc1 | 8.05%
O=C(O)/C=C/C(=O)NCc1ccccn1 | 20.1%
CC(=O)N1CCc2cc(Br)cc(S(=O)(=O)N3CCN(c4ccccn4)CC3)c21 | 14.7%
COc1ccc2oc(C(=O)OCC(=O)N3CC(C)CC(C)C3)c(C)c2c1 (stereo not shown) | -8.41%
C=CCn1c(CCCOc2ccc(Cl)cc2Cl)nnc1SCC(=O)Nc1nccs1 | 7.35%
CC12c3ccccc3C(c3ccccc31)C1C(=O)N(c3cccnc3)C(=O)C12 (stereo not shown) | 3.46%
N#Cc1cc(NC(=O)c2ccc(F)cc2)c(=O)n2c1[nH]c1ccccc12 | 13.4%
Cc1cccc(OCc2nc3ccccc3c(=O)n2N)c1 | 13.7%
NC(=O)CSc1cn(Cc2ccc(F)cc2)c2ccccc12 | 6.56%
O=C(NNc1ccccn1)C(=O)NNS(=O)(=O)c1ccc(Cl)cc1 | 12.8%

SMILES | hERG current change (%, negative = inhibition) at 1uM
CCOC(=O)c1sc(NC(=O)CSc2nc(O)c(Cc3ccccc3)c(=O)[nH]2)nc1C | 4.92%
COc1ccc(OC)c(C2CC(=O)Nc3c2c(=O)[nH]c2ncnn32)c1 (stereo not shown) | 8.28%
C/C=C/C1=CC(=O)C[C@H](c2ccc3c(c2)OCO3)C1 | 13.4%
CC(C(=O)N1CCCC1)N(c1ccccc1)S(C)(=O)=O (stereo not shown) | 20.3%
Nn1c(SCC(=O)Nc2cccc(C(F)(F)F)c2)nncc1=O | 8.8%
C=C(C)C(=O)Nc1cccc(C2=NOC3(C2)C[C@H](C(N)=O)N(C(=O)CC#N)C3)c1 (stereo partly shown) | 6.59%
CCn1c(-c2ccc(N(C)C)cc2)nc2ccccc21 | -3.72%
COc1cc2c(cc1OC)C(c1ccccc1[N+](=O)[O-])N(C(C)=O)CC2 (stereo not shown) | 16.8%
CCOc1ccc(N(CC(=O)NC2CCCCC2)C(=O)CCCC(=O)Nc2ccccn2)cc1 | 14.3%
CC(Oc1ccc(Br)cc1)C(=O)Nn1c(=S)[nH]c2ncccc2c1=O (stereo not shown) | 6.01%
NC1=NC(c2ccc(Cl)cc2)N(c2ccc(S(N)(=O)=O)cc2)C(N)=N1 (stereo not shown) | 18.7%
COCCNC(=O)C1CC2Cn3c(nc4cc5ccccc5cc43)C2N1C (stereo not shown) | 9.89%
Nc1nnn(CC(=O)N/N=C/c2cn[nH]c2-c2ccccc2)n1 | 13.9%
O=Cc1ccc(OCCCOc2cccc3cccnc23)cc1 | 11.3%
CCOC(=O)C[C@H]1c2cc(F)ccc2S(=O)(=O)N1c1cccc(OC)c1 | 10.8%
COc1cc(=O)[nH]c(SCC(=O)Nc2ccc3ccccc3c2)n1 | 15.4%
CCOC(=O)C(CC(=O)Nc1nc(C(C)=O)c(C)s1)C(C)c1ccccc1 (stereo not shown) | 5.21%
CC(Sc1nnc(-c2ccccc2F)n1C1CC1)C(=O)N1CCCC1 (stereo not shown) | 14.9%
CC1=C2C(=O)C3C(CC=C4CC(O)CCC43C)C2CCC12OC1CC(C)CNC1C2C (stereo not shown) | 17.8%
CN1C(=O)c2ccc(NC(=O)C3CCCCC3)cc2C1=O | 0.056%
CC(O)Cc1nsc(NC(=O)c2ccc(Br)o2)n1 (stereo not shown) | -17.8%
COc1ccc2cc(C(=O)C3CCCN(Cc4cnc(N5CCOCC5)s4)C3)ccc2c1 (stereo not shown) | 24.7%

SMILES | hERG current change (%, negative = inhibition) at 1uM
C/C(=N\NC(=O)c1ccccc1N)c1ccc(NC(=O)Cc2ccccc2)cc1 | 13.3%
O=C(Nc1ccc(-c2cscn2)cc1)C1CCCN(Cc2ccc(CO)o2)C1 (stereo not shown) | 2.28%
COc1ccc(-n2[nH]c(C)cc2=O)cc1 | 26.5%
Cl.Cn1c(=N)n(CC(O)c2cccc3ccccc23)c2ccccc21 (stereo not shown) | -40%
Cc1ccc(NC(=O)C(OC(=O)c2ccc(O)cc2)c2ccccc2)cc1Cl (stereo not shown) | -0.323%
O=C(O)/C=C/C(=O)NC1CCC(CC2CCC(NC(=O)/C=C/C(=O)O)CC2)CC1 (stereo not shown) | 20.8%
COCCN1C2=C(C(=O)CC(C)(C)C2)C(c2ccc(O)c(OC)c2)C2=C1CC(C)(C)CC2=O | 2.34%
Cc1oc(-c2ccccc2F)nc1CS(=O)(=O)CC(=O)N1CCCCCC1 | 9.21%
COc1cccc(NC(=O)CSc2nnc(-c3ccoc3C)n2-c2ccccc2)c1 | -17.5%
Clc1cnc(N/N=C/c2cccs2)c(Cl)c1 | 6.06%
COc1ccccc1CCC(=O)NCCCn1ccc2ccccc21 | 12.8%
O=C1C2CC=CCC2C(=O)N1Cc1nnc(-c2ccc(Cl)cc2)o1 (stereo not shown) | 9.12%
COc1cccc(-c2nc(CS(=O)CC(=O)NC(C)CCc3ccccc3)c(C)o2)c1 (stereo not shown) | 10.4%
O=C(CCc1ccccc1)Nc1ccncc1 | -24.3%
Cc1cc(=O)[nH]c(N)n1 | 11.5%
O=C(NCc1ccccc1)c1c[nH]c2ccc(S(=O)(=O)Nc3ccc4c(c3)OCCO4)cc2c1=O | 7.44%
CC(=O)c1c(C)n(-c2ccc(N(C)C)cc2)c2ccc(OCC(N)=O)cc12 | 8.67%
Cc1[nH]n(-c2ccc([N+](=O)[O-])cc2)c(=O)c1C=NCCc1ccc(S(N)(=O)=O)cc1 | 13.6%
Cc1ccc(/C=N/NC(=S)NC(C)C)o1 | 9.48%
Nc1nc(COc2ccccc2C=O)nc(Nc2ccccc2)n1 | 4.51%
O=C(NC(=O)N1CCN(c2cccc(Cl)c2)CC1)c1ccccc1 | 9.64%
CCC1(c2ccccc2)NC(=O)N(CC(=O)Nc2ccc(N3CCCC3)cc2C)C1=O (stereo not shown) | 2.78%
